Assay results reported in PubChem BioAssay AID1345082 (National Center for Advancing Translational Sciences (NCATS), 2018).
In all, about 94,000 compounds went through this assay and about 4,000 (4.3%) were called active. The shares of active, inactive and inconclusive entries below differ from those in the screen. The call rests on the fitted dose curve; in most records, active means well fitted inhibition curve with a large enough effect; inconclusive means small, poorly fitted or top-dose-only effect; inactive means no such curve, though single readings can be large or run the other way. Potencies of inconclusive entries are doubtful fits and often do not repeat.

Test: Cytotoxic Profiling in NIH 3T3 Cell Line of Diverse Libraries Using Quantitative High-Throughput Screening; further: nearly all actives have a fitted effect of over 55% in size
Settings: NIH 3T3 viability, CellTiter-Glo ATP luminescence, 48-72 h; series mostly up to 96.7 µM
Procedure, shortened: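 NIH 3T3 cells at 400 cells/well received 23 nL of compound by pintool and were incubated 48 or 72 h at 37 °C. Viability was read as ATP-coupled CellTiter-Glo luminescence.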
Potency means the concentration at half of the fitted maximal effect; tags describe the fitted curve by direction and shape.

Row | Compound | Potency
1 | COCCN1Cc2[nH]nc(-c3ccc(OC)c(F)c3)c2CC1=O | active: 79.4 µM
2 | CN(Cc1nc2ccc(Cl)cc2[nH]1)C(=O)c1ccc2cccc(F)c2n1 | inconclusive: 79.4 µM [inhibitor, single point]
3 | CC(C)CCNC(=O)C1Cn2cccc2C(=O)N1Cc1ccccc1 (configuration not stated) | inactive
4 | CNC(=O)[C@H]1C[C@H](Oc2ccccc2)CN1Cc1sccc1C | inactive
5 | CN(C)c1nc(-c2ccncc2)nc2c1CCN(C(=O)c1ccn[nH]1)C2 | inactive
6 | CC(=O)Nc1cccc(-c2cc3c(ccn3CC3CCN(C)CC3)c(N3CCOCC3)n2)c1 | inconclusive: 39.8 µM [inhibitor, partial curve, poor fit]
7 | N#Cc1cccc(-c2cn3cc(C(=O)NC4CCCCC4)nc3s2)c1 | inconclusive: 35.5 µM [inhibitor, partial curve]
8 | O=C(NCCc1ccccn1)c1ccnc(-c2nnc3ccc(N4CCOCC4)nn23)c1 | inconclusive: 112 µM [inhibitor, single point]
9 | Cc1ccc(C(=O)N2CCc3nnc([C@@H]4C[C@@H](O)CN4C)n3CC2)cn1 | inactive
10 | Cc1ccc(NC(=O)C2CCc3nnc(CN[S+](C)(=O)[O-])n32)cc1 (configuration not stated) | inactive
11 | O=C(Nc1cccc(F)c1)[C@@H]1C[C@@H](c2cccc(C(F)(F)F)c2)N(CC2CCOCC2)C1 | active: 20 µM
12 | CC(C)Cc1ccc(S(=O)(=O)N2CCCC(Cn3cnc4cccnc43)C2)cc1 (configuration not stated) | inconclusive: 44.7 µM [inhibitor, partial curve, poor fit]
13 | CCn1cc(-c2ccc(OC)cc2)cc1C(=O)N1CCC(C)CC1 | inconclusive: 44.7 µM [inhibitor, partial curve, poor fit]
14 | O=C(OCc1ccccc1)N1CCOCC12CCN(Cc1nccs1)CC2 | inconclusive: 79.4 µM [inhibitor, partial curve, poor fit]
15 | Cc1nn(C)c(C)c1S(=O)(=O)N1CCC2(CCC(=O)N(Cc3ccccc3)CC2)CC1 | inconclusive: 56.2 µM [inhibitor, partial curve, poor fit]
16 | O=C(CC1CCCN(c2cnn(CC3CC3)c(=O)c2)C1)NCc1ccc(Cl)cc1 (configuration not stated) | inconclusive: 50.1 µM [inhibitor, partial curve, poor fit]
17 | CC(C)Cc1cn(C2CCN(Cc3cc4c(cc3Cl)OCO4)CC2)nn1 | inconclusive: 63.1 µM [inhibitor, partial curve, poor fit]
18 | COc1ccc(NC(=O)CCn2cnnn2)cc1NC(=O)c1ccccc1 | inconclusive: 79.4 µM [inhibitor, partial curve]
19 | CNC(=O)N1CCCC(c2nc(CCOCC3CCCC3)no2)C1 (configuration not stated) | inactive
20 | Cc1cc(C)c(CNC(=O)c2nc(-c3ccc(CO)cc3)cc3c2ccn3C)c(=O)[nH]1 | inconclusive: 50.1 µM [inhibitor, partial curve]
21 | CCc1cc(C(=O)N2CCCC(c3nnc(Cn4ccnc4)n3C)C2)ccn1 (configuration not stated) | inactive

Row | Compound | Potency
22 | Cc1cccc(NC(=O)Nc2ccc(C)n(CC(=O)NC(C)C)c2=O)c1 | inactive
23 | COc1ccc(-c2noc([C@@H]3CCCN3C(=O)CCc3ccccc3)n2)cc1 | inconclusive: 50.1 µM [inhibitor, partial curve, poor fit]
24 | COCCn1c2c(c(=O)n1-c1ccccc1)CCN(C(=O)c1cccc(O)c1)C2 | inconclusive: 112 µM [inhibitor, partial curve, poor fit]
25 | COc1ccc(-c2nc(C3CC3)nc3c2CCN(Cc2cncs2)CC3)cc1 | inactive
26 | Cc1cn2nc(C(=O)NC3CCCCCC3)cc2c(N2CCSCC2)n1 | inconclusive: 50.1 µM [inhibitor, partial curve, poor fit]
27 | CN1CCN(Cc2ccc(CC3CCN(C(=O)c4ccc5cc[nH]c5c4)CC3)cc2)CC1 | active: 31.6 µM
28 | CC(C)Cn1cncc1CN1CCC2(CC1)C(C(=O)O)CC(=O)N2C (configuration not stated) | inactive
29 | COCCNC(=O)[C@@H]1C[C@@H](O)CN1C1CCN(C(=O)COc2ccc(F)cc2)CC1 | inactive
30 | O=C1N[C@@H]2CCN(S(=O)(=O)c3ccc(Cl)cc3)[C@@H]2C(=O)N1c1ccc(Oc2ccccc2)cc1 | inactive
31 | CC[C@H]1CN(S(=O)(=O)c2c(C)noc2C)CC[C@H]1CC(=O)NCc1cccc2ccccc12 | inconclusive: 31.6 µM [inhibitor, full curve]
32 | Cc1ccc([S+](=O)([O-])N2CCC(C(=O)N3CCC(c4nc5ccncc5[nH]4)C3)CC2)cc1 (configuration not stated) | inactive
33 | O=C1NCCCCCN(C(=O)C2CCCCC2)[C@H]2CCCC[C@@H]12 | inconclusive: 35.5 µM [inhibitor, partial curve, poor fit]
34 | COc1ccc(CC(=O)N2CCC(c3n[nH]c(=O)n3-c3ccc(C)cc3)CC2)cc1 | active: 31.6 µM
35 | CC(CNC(=O)C1CCN(C(=O)c2ncn3c2COC(c2ccc(F)cc2)C3)CC1)c1ccccc1 (configuration not stated) | inactive
36 | CCOc1ccccc1NC(=O)N1c2ccccc2CC1c1nc(C(C)C)no1 (configuration not stated) | inconclusive: 50.1 µM [inhibitor, partial curve, poor fit]
37 | COc1cccc(CNC(=O)C2CCCN(c3ccnc4ccnn34)C2)c1 (configuration not stated) | inconclusive: 35.5 µM [inhibitor, partial curve]
38 | COc1cccc(CNC(=O)[C@@H]2C[C@@H](O)CN2C2CCN(C(=O)c3ccsc3)CC2)c1 | inactive
39 | O=C(c1ccc(C(F)(F)F)cc1)N1CCN(Cc2ccccc2-c2cccnc2)CC1 | inconclusive: 50.1 µM [inhibitor, partial curve, poor fit]
40 | O=C(Nc1ccc(C2(C(=O)N3CCN(c4ccccn4)CC3)CCCCC2)cc1)C1CC1 | inconclusive: 50.1 µM [inhibitor, partial curve, poor fit]
41 | Cc1cnc(-c2ccccc2)n1C1CCCN(S(=O)(=O)c2ccccc2)C1 (configuration not stated) | inconclusive: 79.4 µM [inhibitor, partial curve, poor fit]
42 | COc1ccc(F)cc1-c1ccc(CN2CCC(N[S+](=O)([O-])CCC(F)(F)F)C2)cc1 (configuration not stated) | inconclusive: 50.1 µM [inhibitor, partial curve, poor fit]
